The record followed here is article PMC8641752.

Test [1] deals with T1, Hmg2-GFP (S. cerevisiae) (UniProt P12684).
T1 sequence (chain, polyubiquitin chain conjugated in cells (sites not printed)): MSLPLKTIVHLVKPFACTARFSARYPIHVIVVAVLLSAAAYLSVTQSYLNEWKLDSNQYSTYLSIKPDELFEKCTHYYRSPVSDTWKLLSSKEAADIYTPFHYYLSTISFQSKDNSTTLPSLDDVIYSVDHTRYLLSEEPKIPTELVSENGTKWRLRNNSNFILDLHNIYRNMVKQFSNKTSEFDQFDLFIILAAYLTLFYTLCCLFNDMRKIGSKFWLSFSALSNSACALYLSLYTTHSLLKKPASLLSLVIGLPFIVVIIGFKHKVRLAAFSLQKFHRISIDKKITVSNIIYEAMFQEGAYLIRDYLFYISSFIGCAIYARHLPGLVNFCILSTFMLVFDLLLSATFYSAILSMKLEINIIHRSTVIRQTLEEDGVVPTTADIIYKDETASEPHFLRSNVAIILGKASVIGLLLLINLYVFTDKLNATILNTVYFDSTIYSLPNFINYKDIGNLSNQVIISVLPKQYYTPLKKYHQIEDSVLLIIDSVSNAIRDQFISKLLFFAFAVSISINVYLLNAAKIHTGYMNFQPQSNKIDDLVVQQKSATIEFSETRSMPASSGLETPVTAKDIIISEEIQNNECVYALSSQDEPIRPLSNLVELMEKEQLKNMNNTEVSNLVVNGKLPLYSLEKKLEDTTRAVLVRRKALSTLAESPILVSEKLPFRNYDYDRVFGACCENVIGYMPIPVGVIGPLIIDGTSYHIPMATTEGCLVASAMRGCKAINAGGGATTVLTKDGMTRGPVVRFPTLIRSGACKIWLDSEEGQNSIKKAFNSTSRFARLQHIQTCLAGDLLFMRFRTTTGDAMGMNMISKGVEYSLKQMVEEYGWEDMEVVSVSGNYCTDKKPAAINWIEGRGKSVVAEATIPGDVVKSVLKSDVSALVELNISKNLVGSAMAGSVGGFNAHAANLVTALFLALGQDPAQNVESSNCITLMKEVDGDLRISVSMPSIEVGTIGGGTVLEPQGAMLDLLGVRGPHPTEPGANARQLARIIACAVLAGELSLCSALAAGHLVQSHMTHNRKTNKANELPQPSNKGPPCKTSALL
Briefly: co-IP; free polyubiquitin competition test: solubilised microsomes incubated with Lys48-linked polyubiquitin chains (2, 5, 10 μg) or buffer for one hour at 4°C, then GFP-Trap precipitation of Hmg2-GFP; blots for Cdc48, Dfm1-HA.

In test [2] the target is T1, Hmg2-GFP (S. cerevisiae). Briefly: co-IP; substrate (Hmg2-GFP, Ste6*-GFP, CPY*-GFP with GFP-Trap; Pdr5*-Myc with Myc Trap) precipitated from yeast microsomes solubilised in Tween IP buffer (500 mM NaCl, 50 mM Tris pH 7.5, 10 mM EDTA, 1.5% Tween-20), overnight 4°C; blots with anti-HA, anti-Cdc48.
The target in the next test is T2, Hrd3 (S. cerevisiae) (UniProt Q05787).
T2 sequence: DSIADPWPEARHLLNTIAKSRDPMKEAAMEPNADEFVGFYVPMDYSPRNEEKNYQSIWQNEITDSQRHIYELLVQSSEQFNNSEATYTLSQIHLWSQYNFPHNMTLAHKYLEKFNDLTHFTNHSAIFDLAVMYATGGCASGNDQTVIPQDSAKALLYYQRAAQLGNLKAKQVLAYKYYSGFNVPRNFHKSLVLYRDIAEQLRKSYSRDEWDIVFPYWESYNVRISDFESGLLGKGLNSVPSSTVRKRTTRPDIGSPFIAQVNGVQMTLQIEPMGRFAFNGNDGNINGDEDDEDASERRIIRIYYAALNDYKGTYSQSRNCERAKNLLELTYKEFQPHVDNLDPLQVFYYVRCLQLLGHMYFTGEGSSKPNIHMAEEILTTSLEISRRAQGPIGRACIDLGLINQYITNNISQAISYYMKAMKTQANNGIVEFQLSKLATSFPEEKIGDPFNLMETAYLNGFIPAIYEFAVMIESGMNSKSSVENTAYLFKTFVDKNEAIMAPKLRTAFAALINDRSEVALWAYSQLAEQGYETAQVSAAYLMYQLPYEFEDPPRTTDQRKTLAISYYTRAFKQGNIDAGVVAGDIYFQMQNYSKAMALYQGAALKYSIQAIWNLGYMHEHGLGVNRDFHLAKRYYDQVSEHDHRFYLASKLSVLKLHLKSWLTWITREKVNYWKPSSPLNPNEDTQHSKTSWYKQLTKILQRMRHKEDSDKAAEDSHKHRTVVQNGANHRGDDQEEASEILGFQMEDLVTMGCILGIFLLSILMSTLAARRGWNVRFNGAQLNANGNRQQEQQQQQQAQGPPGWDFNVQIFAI
Briefly: co-IP; Dfm1 mutants with Hrd1 and Hrd3 of the HRD complex (Figure S1E); bait and conditions not told in the text shown.

For a further test, the target named is T3, Hrd1 (S. cerevisiae) (UniProt Q08109).
T3 sequence: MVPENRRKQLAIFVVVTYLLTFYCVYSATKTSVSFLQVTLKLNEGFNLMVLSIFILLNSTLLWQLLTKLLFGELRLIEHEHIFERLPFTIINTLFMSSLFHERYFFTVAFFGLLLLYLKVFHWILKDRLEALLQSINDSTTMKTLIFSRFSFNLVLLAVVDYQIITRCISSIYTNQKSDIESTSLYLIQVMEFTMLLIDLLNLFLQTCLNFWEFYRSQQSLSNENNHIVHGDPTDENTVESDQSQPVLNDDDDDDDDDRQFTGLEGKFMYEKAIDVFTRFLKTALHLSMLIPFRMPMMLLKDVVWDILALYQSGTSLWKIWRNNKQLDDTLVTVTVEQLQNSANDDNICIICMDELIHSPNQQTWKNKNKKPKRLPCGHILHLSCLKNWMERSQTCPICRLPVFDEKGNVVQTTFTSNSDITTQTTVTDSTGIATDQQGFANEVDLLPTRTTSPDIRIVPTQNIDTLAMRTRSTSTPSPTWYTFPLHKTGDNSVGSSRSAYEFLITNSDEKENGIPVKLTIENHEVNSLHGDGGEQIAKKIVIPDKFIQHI
Described as above.

In test [3] the target is T1, Hmg2-GFP (S. cerevisiae). Briefly: condition: only after removal of the ubiquitin chain from Hmg2-GFP with Usp2Core; co-IP; solubilised microsomes treated with Usp2Core (5 μg, 1 hr, 37°C) to remove ubiquitin from Hmg2-GFP, then GFP-Trap precipitation of Hmg2-GFP; blots for ubiquitin, Cdc48, Dfm1-HA.
In test [4] the target is T1, Hmg2-GFP (S. cerevisiae). Put plainly: condition: only with added free Lys48-linked polyubiquitin chains (2, 5, and 10 μg); co-IP; free polyubiquitin competition test: solubilised microsomes incubated with Lys48-linked polyubiquitin chains (2, 5, 10 μg) or buffer for one hour at 4°C, then GFP-Trap precipitation of Hmg2-GFP; blots for Cdc48, Dfm1-HA.

No constants are given. Whether binding was seen depends on the method and setting. Binding seen in cells or lysates may run through a third protein. Some results given as binding are weak or reduced against the parent protein; the word gives no strength. Sequences can lack the tags named with a protein.

B1: Dfm1-HA (protein, UniProt Q12743 1-341)
chain: MAGPRNVRTLHGNGGRNNDVMGPKEFWLNIPPITRTLFTLAIVMTIVGRLNLINPWYFIYVWNLTFKKVQIWRLLTSCVMLSSRAMPALMELYSIYDRSSQLERGHFGPGLSNRRGPMVTVDYAYYLCFCILAITTATTIIYGSYYPVVLTSGFISCITYTWSIDNANVQIMFYGLIPVWGKYFPLIQLFISFVFNEGDFVISLIGFTTGYLYTCLDTHTLGPIWGMISRKADPTYGISPNGKFSTPWWFTSLYARITGAHNETATFNNNFANVPSSQRETRTFSGRGQRLGTAPATLSQTSGTDSGRASGSQLRSGPSNLNQFQGRGQRVGQTNSPSDSQ
With B1, the binding entry with Hmg2-GFP (S. cerevisiae) [1] is “binds”; in the test with Hmg2-GFP (S. cerevisiae) [2] it was “binds”; in the test with Hrd3 (S. cerevisiae), “binds”; with Hrd1 (S. cerevisiae), “binds”; in the test with Hmg2-GFP (S. cerevisiae) [3], “no binding”; with Hmg2-GFP (S. cerevisiae) [4] it was “no binding”.

B2: Dfm1-F58S (protein, UniProt Q12743 1-341)
chain: MAGPRNVRTLHGNGGRNNDVMGPKEFWLNIPPITRTLFTLAIVMTIVGRLNLINPWYSIYVWNLTFKKVQIWRLLTSCVMLSSRAMPALMELYSIYDRSSQLERGHFGPGLSNRRGPMVTVDYAYYLCFCILAITTATTIIYGSYYPVVLTSGFISCITYTWSIDNANVQIMFYGLIPVWGKYFPLIQLFISFVFNEGDFVISLIGFTTGYLYTCLDTHTLGPIWGMISRKADPTYGISPNGKFSTPWWFTSLYARITGAHNETATFNNNFANVPSSQRETRTFSGRGQRLGTAPATLSQTSGTDSGRASGSQLRSGPSNLNQFQGRGQRVGQTNSPSDSQ
Consider B2, for which the results for the binding result with Hmg2-GFP (S. cerevisiae) [2], in the test with Hrd3 (S. cerevisiae) and in the test with Hrd1 (S. cerevisiae) were “no binding”, “binds” and “binds”, respectively.

B3: Dfm1-K67E (protein, UniProt Q12743 1-341)
chain: MAGPRNVRTLHGNGGRNNDVMGPKEFWLNIPPITRTLFTLAIVMTIVGRLNLINPWYFIYVWNLTFEKVQIWRLLTSCVMLSSRAMPALMELYSIYDRSSQLERGHFGPGLSNRRGPMVTVDYAYYLCFCILAITTATTIIYGSYYPVVLTSGFISCITYTWSIDNANVQIMFYGLIPVWGKYFPLIQLFISFVFNEGDFVISLIGFTTGYLYTCLDTHTLGPIWGMISRKADPTYGISPNGKFSTPWWFTSLYARITGAHNETATFNNNFANVPSSQRETRTFSGRGQRLGTAPATLSQTSGTDSGRASGSQLRSGPSNLNQFQGRGQRVGQTNSPSDSQ
B3: the binding result with Hmg2-GFP (S. cerevisiae) [2] is given as “no binding”; in the test with Hrd3 (S. cerevisiae), “binds”; with Hrd1 (S. cerevisiae) it was “binds”.

B4: Dfm1-F107S (protein, UniProt Q12743 1-341)
chain: MAGPRNVRTLHGNGGRNNDVMGPKEFWLNIPPITRTLFTLAIVMTIVGRLNLINPWYFIYVWNLTFKKVQIWRLLTSCVMLSSRAMPALMELYSIYDRSSQLERGHSGPGLSNRRGPMVTVDYAYYLCFCILAITTATTIIYGSYYPVVLTSGFISCITYTWSIDNANVQIMFYGLIPVWGKYFPLIQLFISFVFNEGDFVISLIGFTTGYLYTCLDTHTLGPIWGMISRKADPTYGISPNGKFSTPWWFTSLYARITGAHNETATFNNNFANVPSSQRETRTFSGRGQRLGTAPATLSQTSGTDSGRASGSQLRSGPSNLNQFQGRGQRVGQTNSPSDSQ
B4: the binding result with Hmg2-GFP (S. cerevisiae) [2], with Hrd3 (S. cerevisiae) and with Hrd1 (S. cerevisiae) was “binds” throughout.

B5: Dfm1-Q101R (protein, UniProt Q12743 1-341)
chain: MAGPRNVRTLHGNGGRNNDVMGPKEFWLNIPPITRTLFTLAIVMTIVGRLNLINPWYFIYVWNLTFKKVQIWRLLTSCVMLSSRAMPALMELYSIYDRSSRLERGHFGPGLSNRRGPMVTVDYAYYLCFCILAITTATTIIYGSYYPVVLTSGFISCITYTWSIDNANVQIMFYGLIPVWGKYFPLIQLFISFVFNEGDFVISLIGFTTGYLYTCLDTHTLGPIWGMISRKADPTYGISPNGKFSTPWWFTSLYARITGAHNETATFNNNFANVPSSQRETRTFSGRGQRLGTAPATLSQTSGTDSGRASGSQLRSGPSNLNQFQGRGQRVGQTNSPSDSQ
Take B5: the binding entry with Hmg2-GFP (S. cerevisiae) [2], with Hrd3 (S. cerevisiae) and with Hrd1 (S. cerevisiae) was “binds” in each case.

B6: Dfm1-L64V (protein, UniProt Q12743 1-341)
chain: MAGPRNVRTLHGNGGRNNDVMGPKEFWLNIPPITRTLFTLAIVMTIVGRLNLINPWYFIYVWNVTFKKVQIWRLLTSCVMLSSRAMPALMELYSIYDRSSQLERGHFGPGLSNRRGPMVTVDYAYYLCFCILAITTATTIIYGSYYPVVLTSGFISCITYTWSIDNANVQIMFYGLIPVWGKYFPLIQLFISFVFNEGDFVISLIGFTTGYLYTCLDTHTLGPIWGMISRKADPTYGISPNGKFSTPWWFTSLYARITGAHNETATFNNNFANVPSSQRETRTFSGRGQRLGTAPATLSQTSGTDSGRASGSQLRSGPSNLNQFQGRGQRVGQTNSPSDSQ
In the case of B6, the binding result in the test with Hmg2-GFP (S. cerevisiae) [2] is “no binding”; with Hrd3 (S. cerevisiae), “binds”; with Hrd1 (S. cerevisiae), “binds”.
